{"source": "PubChem BioAssay AID588456", "about": "(National Center for Advancing Translational Sciences (NCATS), 2011)", "note": "Out of some 390,000 compounds screened, about 55 (0.01%) were called active. The inconclusive results got no clear call from the source; some entries with a clear call stand among them for comparison. Calls follow the shape of the dose curve; as a rule, active = well fitted inhibition curve with a large enough effect; inconclusive = small, poorly fitted or top-dose-only effect; inactive = no such curve, though single readings can be large or run the other way. Potencies of inconclusive entries are doubtful fits and often do not repeat. Potency is read from the fitted curve at half-maximal effect; tags tell the direction and shape of the fitted curve."}
{"biological_target": "Thioredoxin reductase 1, cytoplasmic (Rattus norvegicus) (UniProt O89049)", "sequence (O89049 whole entry, looked up)": "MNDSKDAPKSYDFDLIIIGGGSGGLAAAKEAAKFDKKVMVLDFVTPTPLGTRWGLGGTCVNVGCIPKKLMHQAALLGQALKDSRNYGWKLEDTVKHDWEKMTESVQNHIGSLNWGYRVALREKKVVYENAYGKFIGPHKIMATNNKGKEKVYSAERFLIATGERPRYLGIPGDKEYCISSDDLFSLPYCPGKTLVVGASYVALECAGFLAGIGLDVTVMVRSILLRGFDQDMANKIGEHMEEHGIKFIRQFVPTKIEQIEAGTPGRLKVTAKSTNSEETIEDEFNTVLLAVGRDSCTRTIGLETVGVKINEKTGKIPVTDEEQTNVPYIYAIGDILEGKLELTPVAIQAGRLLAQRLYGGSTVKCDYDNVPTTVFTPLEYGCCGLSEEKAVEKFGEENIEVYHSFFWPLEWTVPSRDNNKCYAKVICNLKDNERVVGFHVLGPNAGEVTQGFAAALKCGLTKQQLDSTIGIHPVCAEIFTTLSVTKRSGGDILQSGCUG", "test": "qHTS Assay for Substrates of Mammalian Selenoprotein Thioredoxin Reductase 1 (TrxR1): qHTS; also: nearly all actives have a fitted effect of over 50% in size", "conditions": "purified TrxR1 substrate turnover, NADPH consumption readout; series mostly up to 114 µM", "procedure,_shortened": "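Rat TrxR1, dispensed at 90 nM, was prereduced with 400 uM NADPH (final) for 5 min at ~22 deg C, then incubated with compound 15 min before 400 uM selenite. A first-read NADPH fluorescence drop versus no-compound background flagged substrates.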"}
{"smiles": "O=C(Nc1cccc(C(=O)O)c1)/C(=C\\c1ccc2c(c1)OCO2)NC(=O)c1ccc(Br)cc1", "Potency": "inconclusive: 79.4 µM [inhibitor, partial curve]"}
{"smiles": "CC(=NNc1ccc([N+](=O)[O-])cn1)c1ccc(N)cc1", "Potency": "inconclusive: 70.8 µM [inhibitor, partial curve, poor fit]"}
{"smiles": "COc1ccc(N2CCN(C(CNC(=O)c3ccc4c(c3)OCO4)c3cccnc3)CC2)cc1", "note": "(centres undefined)", "Potency": "inconclusive: 6.31 µM [inhibitor, partial curve, poor fit]"}
{"smiles": "COc1cn(CC(=O)Nc2cccc(C)c2)c(CN2CCCCC2)cc1=O", "Potency": "inactive"}
{"smiles": "CN(C)c1ccc(CNC(=O)C2CCN(C(=O)c3ccc(-n4ccc5ccccc54)s3)CC2)cc1", "Potency": "inactive"}
{"smiles": "Cc1ccccc1CSCCNC(=O)Nc1ccccc1", "Potency": "inconclusive: 79.4 µM [inhibitor, single point]"}
{"smiles": "O=c1[nH]c2cc(C(F)(F)F)ccc2n1-c1cc(C(F)(F)F)ccc1O", "Potency": "inconclusive: 0.0047 µM [inhibitor, full curve, poor fit]"}
{"smiles": "O=Nc1ccc2oc(=O)ccc2c1", "Potency": "inconclusive: 18.9 µM [inhibitor, partial curve, poor fit]"}
{"smiles": "CCN(CC)c1ncnc2c1cnn2-c1cc(Cl)ccc1C", "Potency": "inactive"}
{"smiles": "CC(C)NC(=O)CN1C(=O)CSc2ccc(S(=O)(=O)N3CCCC3)cc21", "Potency": "inconclusive: 89.1 µM [inhibitor, partial curve, poor fit]"}
{"smiles": "Cc1ncc(CO)c2c1Oc1nc(-c3ccccc3F)nc(SCC(=O)N(C)c3ccccc3)c1C2", "Potency": "inconclusive: 89.1 µM [inhibitor, partial curve, poor fit]"}
{"smiles": "CCN(CC)CCN1C(=O)C(=O)/C(=C(/O)c2ccccc2)C1c1ccccc1F", "note": "(centres undefined)", "Potency": "inconclusive: 39.8 µM [inhibitor, single point]"}
{"smiles": "CCOC(=O)c1cnc2c(cnn2CC)c1NN=C(C)C", "Potency": "inconclusive: 26.7 µM [inhibitor, partial curve, poor fit]"}
{"smiles": "O=C(/C=C/c1ccco1)N1CCc2ccccc21", "Potency": "inactive"}
{"smiles": "Cc1ccc(S(=O)(=O)Nc2ccc(C(=O)N3CCCC3)cc2)c(C)c1NS(C)(=O)=O", "Potency": "inactive"}
{"smiles": "NS(=O)(=O)c1ccc(NC(=O)COC(=O)C2(c3ccccc3F)CCCC2)cc1", "Potency": "inactive"}
{"smiles": "CCc1c(O)nc(SCC(=O)Nc2ccccc2OC)n(-c2ccccc2C)c1=O", "Potency": "inconclusive: 79.4 µM [inhibitor, partial curve, poor fit]"}
{"smiles": "CCOc1ccc(-n2c(SCC(=O)Nc3cc(C)ccc3C)nc3c([nH]c4ccccc43)c2=O)cc1", "Potency": "inactive"}
{"smiles": "Cc1ccccc1C(=O)/C=C1\\NC(=O)CS1", "Potency": "inconclusive: 89.1 µM [inhibitor, partial curve, poor fit]"}
{"smiles": "CC(=O)OCC(=O)Nc1cc(S(=O)(=O)N2CCCCCC2)ccc1Cl", "Potency": "inconclusive: 31.6 µM [inhibitor, single point]"}
{"smiles": "O=C(CSc1ccccc1)N1CCc2ccccc21", "Potency": "inactive"}
{"smiles": "CCCCCCOc1ccc(/C=C/C(=O)Nc2sc3c(c2C(=O)OC)CCC3)cc1OC", "Potency": "inactive"}
{"smiles": "CCC(=O)Nc1ccc(-c2ccc(N3CCC(C)CC3)nn2)cc1", "Potency": "inactive"}
{"smiles": "O=C(Nc1ccc(Cl)cc1)c1ccc(S(=O)(=O)N2CCOCC2)cc1", "Potency": "inconclusive: 89.1 µM [inhibitor, single point]"}
{"smiles": "Cc1ccc(-c2nc(CS(=O)CC(=O)NCc3ccccc3)c(C)o2)cc1", "note": "(centres undefined)", "Potency": "inactive"}
{"smiles": "Cn1c(SCC(=O)c2ccc3c(c2)Cc2ccccc2-3)nnc1-c1ccccc1", "Potency": "inactive"}
{"smiles": "NC(=O)c1ccc(N=C2C(=O)Nc3ccc([N+](=O)[O-])cc32)cc1", "Potency": "inconclusive: 28.2 µM [inhibitor, full curve]"}
{"smiles": "CC(C)(C)c1cc(=O)n(-c2ccccc2)[nH]1", "Potency": "inconclusive: 79.4 µM [inhibitor, single point]"}
{"smiles": "Cc1cc(-c2csc(NC(=O)c3ccc(=O)[nH]c3)n2)c(C)n1Cc1ccccc1", "Potency": "inconclusive: 39.8 µM [inhibitor, single point]"}
{"smiles": "COc1cc(/C=N/N=C/c2cc(OC)c(O)c(OC)c2)cc(OC)c1O", "Potency": "inconclusive: 35.5 µM [inhibitor, partial curve, poor fit]"}
{"smiles": "O=C(Cn1c(=O)oc2ccccc21)NCC1COc2ccccc2O1", "note": "(centres undefined)", "Potency": "inconclusive: 39.8 µM [inhibitor, single point]"}
{"smiles": "CCOc1ccc(NC(=O)CN2CCN(Cc3ccccc3)S2(=O)=O)cc1", "Potency": "inactive"}
{"smiles": "CCOc1ccccc1NC(=O)Cc1coc2c(C)c(C)ccc12", "Potency": "inactive"}
{"smiles": "COC(=O)c1ccc(NS(=O)(=O)c2cc3c4c(c2)CCN4C(=O)CC3)cc1", "Potency": "inactive"}
{"smiles": "Cc1ccc(C(=O)c2c(C)oc3c2C(=O)C(=O)c2ccccc2-3)cc1", "Potency": "inconclusive: 39.8 µM [inhibitor, single point]"}
{"smiles": "COc1cc(OC)c([N+](=O)[O-])cc1/C=N/NC(=O)c1ccncc1", "Potency": "inconclusive: 89.1 µM [inhibitor, partial curve, poor fit]"}
{"smiles": "COc1ccc2oc(=O)c(-c3csc(/C(C#N)=C/c4ccc(F)cc4)n3)cc2c1", "Potency": "inconclusive: 89.1 µM [inhibitor, single point]"}
{"smiles": "Cc1nc([N+](=O)[O-])cn1CC(=O)c1ccc2c(c1)OCCO2", "Potency": "inconclusive: 89.1 µM [inhibitor, single point]"}
{"smiles": "CCn1cc(C(=O)NCCC(C)C)c(=O)c2cc(S(=O)(=O)N3CCCCC3)ccc21", "Potency": "inconclusive: 89.1 µM [inhibitor, partial curve, poor fit]"}
{"smiles": "Cc1nnc(N2C(=O)c3oc4ccccc4c(=O)c3C2c2cccc(OCCC(C)C)c2)s1", "note": "(centres undefined)", "Potency": "inconclusive: 89.1 µM [inhibitor, single point]"}
{"smiles": "N#Cc1ccc(C(=O)N/N=C/c2cn(CC(=O)O)c3ccccc23)c(F)c1", "Potency": "inconclusive: 56.2 µM [inhibitor, partial curve, poor fit]"}
{"smiles": "O=c1/c(=C\\c2ccc(O)cc2)sc2nc(-c3ccccc3)c(-c3ccccc3)n12", "Potency": "inactive"}
{"smiles": "CC1CCc2c(sc(NC(=O)CSc3ncn[nH]3)c2C#N)C1", "note": "(centres undefined)", "Potency": "inactive"}
{"smiles": "CC(C)Oc1cccc(C(=O)C2CCCN(C(=O)CCn3cnnn3)C2)c1", "note": "(centres undefined)", "Potency": "inconclusive: 89.1 µM [inhibitor, partial curve, poor fit]"}
{"smiles": "Cc1ccc(Nc2nc(N)c([N+](=O)[O-])c(NCCO)n2)cc1", "Potency": "inconclusive: 79.4 µM [inhibitor, partial curve, poor fit]"}
{"smiles": "CC(=NC(C)C)C1=C(O)CCC1=O", "Potency": "inconclusive: 39.8 µM [inhibitor, single point]"}
{"smiles": "O=C(N/N=C/c1c(O)n(-c2ccc(Cl)cn2)c(=O)c2ccccc12)c1ccncc1", "Potency": "inconclusive: 79.4 µM [inhibitor, single point]"}
{"smiles": "COC(=O)C1=C(C)NC(C)=C(C(=O)OC)C1c1ccc(OC(=O)c2ccco2)cc1", "Potency": "inactive"}
{"smiles": "Cc1ccc(NC(=O)Cc2ccc(-n3c(C)nc4cccnc43)cc2)cc1C", "Potency": "inconclusive: 39.8 µM [inhibitor, single point]"}
{"smiles": "Cc1nn(-c2ccccc2)nc1C(=O)NNC(=O)c1cccc2ccccc12", "Potency": "inconclusive: 22.4 µM [inhibitor, partial curve, poor fit]"}
{"smiles": "O=C(O)CSCC(=O)N1CCc2c([nH]c3ccccc23)C1C(F)(F)F", "note": "(centres undefined)", "Potency": "inconclusive: 89.1 µM [inhibitor, partial curve, poor fit]"}
{"smiles": "O=c1[nH]c2cc([N+](=O)[O-])c([N+](=O)[O-])cc2[nH]c1=O", "Potency": "inconclusive: 0.0474 µM [inhibitor, partial curve, poor fit]"}
{"smiles": "O=S(=O)(NC1CCCC1)c1ccc(S(=O)(=O)N2CCc3ccccc32)cc1", "Potency": "inactive"}
{"smiles": "CC(=O)Nc1ccc(NC(=O)C(Sc2ccccc2)c2ccccc2)cc1", "note": "(centres undefined)", "Potency": "inconclusive: 89.1 µM [inhibitor, single point]"}
{"smiles": "CCc1cccc(C)c1NC(=O)c1cccc(N(C)C)c1", "Potency": "inactive"}
{"smiles": "O=C(O)COc1ccc(/C=C/c2nc3ccc([N+](=O)[O-])cc3s2)cc1", "Potency": "inconclusive: 89.1 µM [inhibitor, single point]"}
{"smiles": "COc1cccc(NC(=O)CC2C(=O)OCCN2Cc2ccccc2)c1", "note": "(centres undefined)", "Potency": "inactive"}
{"smiles": "Cc1ccccc1-c1noc(CCC(=O)NCc2ccco2)n1", "Potency": "inactive"}
{"smiles": "Cc1ccc(S(=O)(=O)NCCCn2ccnc2)cc1C(=O)NC(C)C", "Potency": "inconclusive: 28.2 µM [inhibitor, single point]"}
{"smiles": "CCCOc1ccc(N2C(=O)CC(N(O)c3ccccc3)C2=O)cc1", "note": "(centres undefined)", "Potency": "inactive"}
{"smiles": "CCC(=O)NC(c1ccc(C)cc1)c1cc([N+](=O)[O-])c2cccnc2c1O", "note": "(centres undefined)", "Potency": "inconclusive: 89.1 µM [inhibitor, partial curve, poor fit]"}
{"smiles": "O=C(Cc1ccccc1[N+](=O)[O-])N/N=C/c1cccnc1", "Potency": "inconclusive: 25.1 µM [inhibitor, single point]"}
{"smiles": "CCn1c(CNc2nc(-c3ccccc3)cs2)nnc1SCC(=O)NCc1ccco1", "Potency": "inactive"}
{"smiles": "Clc1ccc(C2=Nn3c(nnc3-c3n[nH]c4c3CCC4)SC2)cc1", "Potency": "inactive"}
{"smiles": "N#CC1=C(N)N2C(=C(C#N)C13CCN(Cc1ccccc1)CC3)Nc1ccccc12", "Potency": "inactive"}
{"smiles": "Cc1oc2c(c1C(=O)c1ccccc1)C(=O)C(=O)c1ccccc1-2", "Potency": "inconclusive: 25.1 µM [inhibitor, single point]"}
{"smiles": "Cc1cc(Br)cc(/C=N/NC(=O)c2ccc3c(c2)OCO3)c1O", "Potency": "inactive"}
{"smiles": "Oc1ccc(/C=N/Nc2cc(N3CCOCC3)nc(N3CCOCC3)n2)cc1O", "Potency": "inconclusive: 79.4 µM [inhibitor, partial curve, poor fit]"}
{"smiles": "COc1ccc(OC(C)C(=O)NCc2nc(-c3ccc(Cl)cc3)no2)cc1", "note": "(centres undefined)", "Potency": "inactive"}
